Experimental data from PMC4336329 (PLoS ONE, 2015).
Hit rate of the full screen: of about 310,000 compounds, about 2,200 (0.71%) showed an effect of 50% or more. Effects have a minus sign here. The list shows a part of the results.

What follows are compounds tested against human ether-à-go-go-related gene (hERG) potassium channel (human, UniProt Q12809) (assay: primary screen, population patch clamp on CHO cells stably expressing hERG).
Sequence of human ether-à-go-go-related gene (hERG) potassium channel (Q12809 whole entry, looked up): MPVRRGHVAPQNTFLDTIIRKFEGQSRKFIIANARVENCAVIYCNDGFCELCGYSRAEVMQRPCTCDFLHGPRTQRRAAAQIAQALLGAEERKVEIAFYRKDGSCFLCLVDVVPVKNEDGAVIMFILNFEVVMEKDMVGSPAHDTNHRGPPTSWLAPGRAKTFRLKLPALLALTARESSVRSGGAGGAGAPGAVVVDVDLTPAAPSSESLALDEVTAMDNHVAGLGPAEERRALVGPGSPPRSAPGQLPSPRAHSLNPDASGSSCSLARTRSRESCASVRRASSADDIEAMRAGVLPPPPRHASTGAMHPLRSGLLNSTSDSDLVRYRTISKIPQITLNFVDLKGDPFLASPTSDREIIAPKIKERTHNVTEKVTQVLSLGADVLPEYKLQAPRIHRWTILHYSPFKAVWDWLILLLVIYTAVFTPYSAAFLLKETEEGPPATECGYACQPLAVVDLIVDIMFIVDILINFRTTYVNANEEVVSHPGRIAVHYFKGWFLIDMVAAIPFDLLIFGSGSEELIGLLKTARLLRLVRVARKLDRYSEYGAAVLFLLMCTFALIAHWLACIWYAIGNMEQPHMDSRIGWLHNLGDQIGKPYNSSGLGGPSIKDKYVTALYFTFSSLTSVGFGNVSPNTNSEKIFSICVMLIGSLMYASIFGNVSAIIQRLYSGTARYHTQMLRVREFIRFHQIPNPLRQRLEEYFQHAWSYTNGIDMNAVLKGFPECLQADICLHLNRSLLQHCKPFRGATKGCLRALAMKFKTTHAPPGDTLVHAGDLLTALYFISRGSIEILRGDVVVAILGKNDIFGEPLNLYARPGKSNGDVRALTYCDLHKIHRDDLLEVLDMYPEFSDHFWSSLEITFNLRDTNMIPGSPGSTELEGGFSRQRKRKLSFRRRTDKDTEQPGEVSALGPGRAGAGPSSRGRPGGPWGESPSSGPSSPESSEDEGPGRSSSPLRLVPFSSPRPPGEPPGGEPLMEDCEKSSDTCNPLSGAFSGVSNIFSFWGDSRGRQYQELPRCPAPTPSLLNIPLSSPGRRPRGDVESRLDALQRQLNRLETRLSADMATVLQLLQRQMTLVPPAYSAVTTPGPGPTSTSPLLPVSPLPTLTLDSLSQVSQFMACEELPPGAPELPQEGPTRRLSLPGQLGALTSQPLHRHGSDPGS

| SMILES | hERG current change (%, negative = inhibition) at 1uM |
| --- | --- |
| O=C(NCCCc1ccccc1)C1CC(=O)N(c2ccc3c(c2)OCCO3)C1 (stereo not drawn) | 4.59% |
| CN1C(=S)SC(N(O)C(=O)Nc2ccc(Cl)c(Cl)c2)C1(C)C (stereo not drawn) | 4.66% |
| COc1ccccc1N1C(=O)Cc2ccccc2C1=O | 11.8% |
| COC(=O)C1=C(c2ccc(-c3ccccc3)c(F)c2)C[C@@H]2CC[C@H]1N2C(=O)NCCOc1ccccc1Cl | 11.6% |
| O=C1CCCN1CC(O)CS(=O)(=O)Cc1ccccc1 (stereo not drawn) | 10.8% |
| CC1(c2ccc(Cl)cc2)NC(=O)N(CN2CCOCC2)C1=O (stereo not drawn) | 9.42% |
| CC[C@@H](C)C(NC(=O)OC(C)(C)C)c1cn([C@@H](CCC(=O)OC(C)(C)C)C(=O)N2CCN(C(=O)OC(C)(C)C)CC2)nn1 (stereo partly drawn) | 16.1% |
| N#Cc1cccc(NC(=O)CSc2ccccc2)c1 | 7.92% |
| Cc1cc2cc(C(c3nnnn3Cc3ccco3)N3CCCCC3)c(=O)[nH]c2cc1C (stereo not drawn) | 6.29% |
| COC(=O)C1(CC2CC(c3ccccc3)=NO2)CCN(C(=O)OC(C)(C)C)CC1 (stereo not drawn) | 12.3% |
| COc1cc(/C=C/C(=O)OCC(=O)Nc2ccccc2Sc2ccc(Cl)cc2)ccc1O | 2.82% |
| CCC(C(=O)NCCc1c[nH]c2cc(OC)ccc12)c1ccccc1 (stereo not drawn) | 12.6% |
| CCCNC(=O)Nc1ccc(C(F)(F)F)cc1 | 16% |
| COc1ccc(-c2nnc(SCC(=O)Nc3cccnc3Cl)n2C)cc1 | -25.8% |
| Cc1cc(C(=O)N/N=C/c2ccc(-c3ccc(C)c(Cl)c3)o2)n[nH]1 | 9.36% |
| Cc1ccccc1CNC(=O)c1cc2ccccc2o1 | 13.9% |
| O=C(CN1CCOCC1)Nc1nc(-c2ccc3c(c2)CCN3S(=O)(=O)c2ccccc2)cs1 | 17.9% |
| COc1cccc(CNC(=O)C2CC(=O)N(c3ccc4c(c3)OCCO4)C2)c1 (stereo not drawn) | 14.5% |
| CC(Cc1ccccc1)NC(=O)Cc1ccc(N(C)C)cc1 (stereo not drawn) | 5.4% |
| O=C(COc1ccccc1)Nc1ccc(-c2ccc(N3CCOCC3)nn2)cc1 | -2.8% |
| O=C1c2ccccc2C(=O)N1Cc1nc2ccccc2c(=O)n1Cc1ccco1 | 16.5% |
| Cc1cc(C)n(-c2ccc(NC(=O)C3CCN(Cc4ccc(C)o4)CC3)cc2)n1 | 10% |
| COC(=O)c1ccc(NC(=O)c2ccc3c(c2)C(=O)N(C)C3=O)cc1 | 13% |
| O=C(C1=NN(c2ccccc2)C2C(=O)N(c3ccc(Cl)cc3)C(=O)C12)c1ccccc1 (stereo not drawn) | 3.04% |
